# Measurements as given in PubChem BioAssay AID1345083 (National Center for Advancing Translational Sciences (NCATS), 2018).
# Hit rate of the full screen: of about 94,000 compounds, about 6,200 (6.6%) were called active. Inconclusive means that the source gave no clear call. Such entries were picked first, then a sample of the others. Calls come from the whole dose curve; as a rule, active = well fitted inhibition curve with a large enough effect; inconclusive = small, poorly fitted or top-dose-only effect; inactive = flat fitted curve, though single readings scatter. Potencies beside an inconclusive call are fits to weak or partial responses and may not hold up.
# Assay: Cytotoxic Profiling in HEK 293 Cell Line of Diverse Libraries Using Quantitative High-Throughput Screening; note: nearly all actives have a fitted effect of over 60% in size
# Details: HEK 293 viability, ATP luminescence (CellTiter-Glo), 48-72 h; activity change, negative = cytotoxicity: at 115 µM (top of the series) unless noted; series mostly up to 115 µM
# Outline: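 qHTS cytotoxicity; HEK 293, 250 cells/well; compound pinned; 48 or 72 hr, 37 degree Celsius, 5% CO2, 95% humidity; CellTiter-Glo, 10 min RT; luminescence (ATP).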
# % is set by controls: 0 for no effect and ±100 for the full control effect; potency is the fitted concentration of half-maximal effect; tags give direction and shape of the fitted curve.
SMILES,"activity change, negative = cytotoxicity",Potency,outcome
O=C(N[C@H]1CCN2C(=O)N(c3cccc4nsnc34)C(=O)[C@@H]2C1)c1ccnc(Cl)c1,inactive: -11.8%,,
O=C(Nc1ccc(Cl)cc1)N1CCCN(c2ccc3nnc(C4CC4)n3n2)CC1,inactive: -1.59%,,
CCOc1ccc(CC(=O)N2CCCN(c3cc(-c4ccccc4)[nH]n3)CC2)cc1OCC,,"inconclusive: 50.1 µM [inhibitor, partial curve, poor fit]",
COc1ccc(C(=O)N2CCN(c3cc(C(F)(F)F)ncn3)CC2)cc1,,"inconclusive: 100 µM [inhibitor, single point]",
O=C(NCc1ccc(Cl)cc1)c1ccc2nnc(CC3CC3)n2c1,,"inconclusive: 39.8 µM [inhibitor, partial curve, poor fit]",
COc1ccccc1NC(=O)N1CCC2(CCNC(=O)CC2)CC1,inactive: -2.63%,,
O=C(CCc1ccccc1)N1CCC(Oc2ncccc2C(=O)N2CCCCC2)C1 (stereo not given),,"inconclusive: 39.8 µM [inhibitor, partial curve]",
Cc1noc2c(-c3cccc(O)c3)cc(-c3cccs3)nc12,,active: 70.8 µM,
COC(=O)[C@@H]1Cc2c([nH]c3ccccc23)[C@H]2C[C@H](NCc3cccs3)C[C@@H](c3ccccc3)N21,,"inconclusive: 17.8 µM [inhibitor, full curve, poor fit]",
CC(=O)c1ccc(NC(=O)N2C[C@@H]3C[C@H](C2)c2ccc(NC(=O)c4ccc(F)cc4)c(=O)n2C3)cc1,,,inactive
Cn1ncc2c(C(=O)NCc3cccc(F)c3)cc(-c3ccc(C(F)(F)F)cc3)nc21,,active: 39.8 µM,
COCCC(=O)N[C@H]1CC[C@]2(C)CCC([C@H](C)C(=O)N(C)Cc3ccccc3)[C@H](O)[C@H]2[C@@H]1C (stereo not given in full),inactive: -16.8%,,
Nc1cccn2nc(-c3ccccc3)nc12,inactive: -18%,,
O=C(Nc1ccc2n(c1=O)C[C@H]1C[C@@H]2CN(C(=O)Nc2ccc(F)cc2)C1)c1ccccc1,inactive: -6.33%,,
COc1cc(F)ccc1-c1cn(C)c(=O)n2cc(CN3CCNC(=O)C3)nc12,inactive: -25.2% [at 172 µM],,
CC(=O)c1cccc(NC(=O)CN2C(=O)NC3(CCC(C(C)(C)C)CC3)C2=O)c1 (stereo not given),,"inconclusive: 35.5 µM [inhibitor, partial curve, poor fit]",
COc1ccc(NC(=O)c2ccc3c(c2)C(O)CCCCCN3C)cn1 (stereo not given),,"inconclusive: 50.1 µM [inhibitor, partial curve, poor fit]",
Cc1nc(-c2c3n(c(=O)n(Cc4ccc(OC(F)(F)F)cc4)c2=O)CCCC3)no1,,"inconclusive: 50.1 µM [inhibitor, partial curve, poor fit]",
O=C(NCc1ccccn1)c1ccc2oc(-c3cccnc3)nc2c1,,"inconclusive: 89.1 µM [inhibitor, single point]",
COC(=O)[C@@H]1C[C@H](NC(=O)c2ccc(Oc3ccccc3)cc2)CN1C,inactive: -25.9%,,
O=C(Cn1nc2n(c1=O)CCCC2)NCc1ccccc1Br,inactive: 0.168%,,
O=C(NCc1ccccc1)N1CCC[C@H](n2c(=O)n(CC3CC3)c3cccnc32)C1,inactive: -27.8%,,

SMILES,"activity change, negative = cytotoxicity",Potency,outcome
CCOC(=O)C1CCN(C(=O)c2cn3cc(-c4ccccc4)sc3n2)CC1,inactive: -21.2%,,
O=C(O)[C@@H]1CN(Cc2ccccc2)C[C@@H]1C(=O)N1CCCC1,inactive: -2.88%,,
CCn1ncc(N2CCCC(CC(=O)N3CCN(c4ccccn4)CC3)C2)cc1=O (stereo not given),,"inconclusive: 89.1 µM [inhibitor, single point]",
CCN(CC)C(=O)c1coc(COc2ccc3c(c2)C(c2ccc(C)cc2)N(C(=O)C2CC2)CC3)n1 (stereo not given),,active: 10 µM,
CCOC(=O)C1(Cc2ccc(F)cc2F)CCCN(S(=O)(=O)c2c(C)noc2C)C1 (stereo not given),,active: 39.8 µM,
O=C(Nc1cccc(C(F)(F)F)c1)N1CCCC1c1nncn1C1CCCC1 (stereo not given),,"inconclusive: 89.1 µM [inhibitor, single point]",
OC[C@H]1CN(Cc2ccc(-n3ccnc3)cc2)C[C@H]1CN1CCCCC1,,"inconclusive: 14.1 µM [inhibitor, full curve, poor fit]",
O=C(CN1C(=O)NC2(CCOCC2)C1=O)Nc1cccc(F)c1,inactive: 2.6%,,
Cc1cc(F)ccc1-c1[nH]nc2ncc(-c3cn[nH]c3)nc12,,"inconclusive: 39.8 µM [inhibitor, full curve, poor fit]",
Cc1cn2nc(C(=O)N3CCN(c4ccccc4)CC3)cc2c(N(C)Cc2ccccc2)n1,,"inconclusive: 50.1 µM [inhibitor, partial curve, poor fit]",
O=C(NCc1ccccc1)c1cc2n(n1)CC(c1ccc(Cl)cc1)OC2 (stereo not given),,"inconclusive: 50.1 µM [inhibitor, partial curve, poor fit]",
CNC(=O)CN1CCCC(N2CCN(c3ccccc3F)CC2)C1 (stereo not given),inactive: -9.75%,,
Cc1nc(-c2ccc(F)cc2)n(Cc2ccc(F)cc2)c(=O)c1CCO,,"inconclusive: 50.1 µM [inhibitor, partial curve, poor fit]",
CN1c2cc(C(=O)Nc3ccc(C(F)(F)F)cc3)ccc2C(=O)N2CCCCC21 (stereo not given),,"inconclusive: 39.8 µM [inhibitor, full curve, poor fit]",
Cn1ncc(CN2CCc3nc(-c4ccc(F)cc4F)[nH]c3C2)c1C1CC1,,"inconclusive: 89.1 µM [inhibitor, single point]",
COc1ccc(C(CC(=O)NCc2cccnc2)c2ccccc2)cc1 (stereo not given),,"inconclusive: 56.2 µM [inhibitor, partial curve, poor fit]",
COc1ccc(/C=C/c2ccc3c(c2)C(=O)N2CC[C@H](NC(=O)COCC(=O)O)[C@H]2C(=O)N3)cc1,,"inconclusive: 50.1 µM [inhibitor, partial curve, poor fit]",
COc1ccccc1-c1cc(C(=O)NC2CCOCC2)c2cnn(C)c2n1,,,inactive
Cc1cnc(C2CC2)n1CC1CCN(C(=O)C2CC2)CC1,,,inactive
CCn1nccc1C(=O)N1CCCC(c2nnnn2-c2ccccc2)C1 (stereo not given),inactive: 0.703%,,
COc1ccccc1Nc1ccnc(N2CCC(NC(=O)c3ccccc3Cl)CC2)n1,,"inconclusive: 50.1 µM [inhibitor, partial curve, poor fit]",
CN(C)C(=O)C1CCN(c2nccc(Nc3ccccc3F)n2)CC1,inactive: -25.1%,,

SMILES,"activity change, negative = cytotoxicity",Potency,outcome
CC(C)(C)C(=O)N1CCC(c2nn(-c3ccc(F)cc3)c(=O)[nH]2)CC1,,"inconclusive: 70.8 µM [inhibitor, partial curve, poor fit]",
COc1nccc(N2CCC(CC(=O)NCc3ccc(F)cc3Cl)CC2)n1,,"inconclusive: 50.1 µM [inhibitor, partial curve, poor fit]",
COCc1ccc(CN[C@H]2C[C@@H](Cc3cc(CN4CCCCC4)on3)C2(C)C)o1,,"inconclusive: 50.1 µM [inhibitor, partial curve, poor fit]",
Cc1ccc(CNC(=O)c2ccc3c(c2)CN(CC2=Cc4ccccc4OC2)CCO3)cc1,,active: 28.2 µM,
Cc1ccc(Nc2ccnc(N3CCC(C(=O)NCC4CC4)CC3)n2)cc1,,"inconclusive: 28.2 µM [inhibitor, partial curve, poor fit]",
CC(=O)N[C@H]1CN(S(=O)(=O)c2ccc(C)c(F)c2)C[C@@H]1C(C)C,,"inconclusive: 39.8 µM [inhibitor, full curve, poor fit]",
CCC(c1ccccc1)N1Cc2cc(NS(=O)(=O)c3ccc(Cl)cc3)ccc2OC(C)C1=O (stereo not given),,"inconclusive: 28.2 µM [inhibitor, full curve, poor fit]",
Cn1nc(C2CCCC2)cc1NC(=O)c1cccc(Br)c1,,"inconclusive: 56.2 µM [inhibitor, partial curve, poor fit]",
Cc1nccn1CCN(C)c1ccc(-c2nc(COc3ccccc3)no2)cn1,,"inconclusive: 44.7 µM [inhibitor, partial curve, poor fit]",
Cc1cc2nc3n(c(=O)c2n1CC(=O)N1CCN(c2ccc(F)cc2)CC1)CCCCC3,,"inconclusive: 79.4 µM [inhibitor, single point]",
COc1ccc(C2CCC(=O)N2Cc2ccc(F)cc2)cc1 (stereo not given),,"inconclusive: 89.1 µM [inhibitor, single point]",
O=C(c1ccc(F)cc1)N1CCC2(CC1)CC(N(Cc1ccccc1)C1CC1)CCO2 (stereo not given),,"inconclusive: 50.1 µM [inhibitor, partial curve, poor fit]",
CN(Cc1ccccc1)[C@@H]1C[C@@H]2CO[C@H](c3ccccc3)C[C@@H]2C1,,"inconclusive: 31.6 µM [inhibitor, partial curve, poor fit]",
CCc1ccc(C(=O)N2CCCN(c3nnc4ccccn34)CC2)cc1,inactive: -11.4%,,
Cc1cc(Cn2cc3c4c(cccc42)[C@H](CC(C)C)N[C@H](C(=O)NCc2ccco2)C3)no1,,active: 39.8 µM,
COc1ccc(-c2cc(N3CCCC(NC(=O)c4cccc(OC)c4)C3)n[nH]2)cc1 (stereo not given),,active: 25.1 µM,
O=C(NCCCc1ccccc1)c1cc(-c2ccsc2)c2nncn2n1,,"inconclusive: 50.1 µM [inhibitor, partial curve, poor fit]",
CN(C)c1ccc(CN2C[C@H](O)C[C@H]2c2nc(-c3ccc(C(F)(F)F)cc3)no2)cc1,,"inconclusive: 28.2 µM [inhibitor, single point]",
O=C(NC1CCCCC1)c1nc2cccnc2n(CCc2ccccc2)c1=O,,"inconclusive: 56.2 µM [inhibitor, partial curve, poor fit]",
COCC(=O)NC1CCC12CCN(Cc1ccccn1)CC2 (stereo not given),,"inconclusive: 100 µM [inhibitor, single point]",
Cc1ccc(C)c(NC(=O)N2C[C@@H](F)C[C@H]2C(=O)N2CCCCC2)c1,inactive: 10.9%,,
